Experimental data from patent US20230235090A1 (HARBOUR BIOMED US, published 2023).
Changes are numbered by the printed parent chain. Names may count otherwise. Blank lines part the entries; values can stand above or below the binder they belong to.

How the values were obtained:
[1] = biological target: T1, human B7-H4 (human, UniProt Q7Z7D3 25-282); assay: FACS, SK-BR-3 cells [B]
T1 construct: whole, on cells; also called VTCN1; SK-BR-3 cell line highly expressing B7-H4
T1 sequence (looked up): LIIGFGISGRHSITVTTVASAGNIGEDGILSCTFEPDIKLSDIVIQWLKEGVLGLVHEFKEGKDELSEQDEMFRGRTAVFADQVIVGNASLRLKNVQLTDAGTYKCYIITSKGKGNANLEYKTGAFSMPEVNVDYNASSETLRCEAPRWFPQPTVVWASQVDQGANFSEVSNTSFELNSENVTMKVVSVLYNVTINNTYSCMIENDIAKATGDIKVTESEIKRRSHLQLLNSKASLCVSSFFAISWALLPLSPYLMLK

[2] = biological target: T1, human B7-H4; assay: FACS, SK-BR-3 cells [A]
[3] = biological target: T2, cynomolgus monkey 4-1BB (cynomolgus monkey); assay: FACS, CHO-K1/cyno 4-1BB cells [B]
T2 construct: whole, on cells; also called CHO-K1-cyno 4-1BB; CHO-K1/cyno4-1BB

EC50 [1]: 3310 pM
Maximum MFI [1]: 42300 MFI
B1: PR002972 (bispecific antibody, human IgG1, kappa, L234A L235A)
light: EIVMTQSPASLSVSPGERATLSCRASQSVSSNLAWYQQKPGQAPRLLIYGASTRATGIPARVSGGGSGTEFTLTISSLQSEDFAVYYCQQYKNWPFTFGPGTKLEIKRTVAAPSVFIFPPSDEQLKSGTASVVCLLNNFYPREAKVQWKVDNALQSGNSQESVTEQDSKDSTYSLSSTLTLSKADYEKHKVYACEVTHQGLSSPVTKSFNRGEC
heavy: QVQLVQSGAEVKKPGSSMRVSCKASEDTFSSYAISWVRQAPGQGLEWMGGTAPIFGTTNYAQKFQGRVTITADKSTSTAYMELSSLRSEDTAVYYCARGGPYFDYWGQGTLVTVSSASTKGPSVFPLAPSSKSTSGGTAALGCLVKDYFPEPVTVSWNSGALTSGVHTFPAVLQSSGLYSLSSVVTVPSSSLGTQTYICNVNHKPSNTKVDKKVEPKSCDKTHTCPPCPAPEAAGGPSVFLFPPKPKDTLMISRTPEVTCVVVDVSHEDPEVKFNWYVDGVEVHNAKTKPREEQYNSTYRVVSVLTVLHQDWLNGKEYKCKVSNKALGAPIEKTISKAKGQPREPQVYTLPPSREEMTKNQVSLTCLVKGFYPSDIAVEWESNGQPENNYKTTPPVLDSDGSFFLYSKLTVDKSRWQQGNVFSCSVMHEALHNHYTQKSLSLSPGEPKSSDKTHTPPPPPRTQVQLQQWGAGLLKPSETLSLTCAVYGGSFSGYYWSWIRQPPGKGLEWIGEIQHSGSTDSNPSLKGRVTFSVDTSKNQFSLKLNSVTAADTAVYYCARLTGPFDYWGQGTLVTVSSGGGGSGGGGSGGGGSEIVMTQSPATLSVSPGERATLSCRASQSISSILAWYQQKPGQAPRLLIYGASTRATGIPARFSGSGSGTEFTLTISSLQSEDFAVYYCQQYYNWPLTFGGGTKVEIK
notes: IgG-scFv tetravalent symmetric; PR002410 IgG x PR000448 scFv; IgG1 (L234A, L235A, P329G)

EC50 [1]: 575 pM
Maximum MFI [1]: 30400 MFI
B2: PR002792 (bispecific antibody, human IgG1, kappa, L234A L235A)
polypeptide chain 1: EIVMTQSPATLSVSPGERATLSCRASQSISSNLGWYQQKPGQAPRLLIYGASTRATGIPARFSGSGSGTEFTLTISSLQSEDFAVYYCQQYNSWPPLTFGGGTKVEIKRTVAAPSVFIFPPSDEQLKSGTASVVCLLNNFYPREAKVQWKVDNALQSGNSQESVTEQDSKDSTYSLSSTLTLSKADYEKHKVYACEVTHQGLSSPVTKSFNRGEC
polypeptide chain 2: QVQLVESGGGVVQPGRSLRLSCAASGFTFRSFGMHWVRQAPGKGLEWVAVISYDGSNEYYADSVKGRFIISRDNSKDTLYLQMNSLRAGDTAVYYCAKGGGLRWYFAYWGQGTLVTVSSASTKGPSVFPLAPSSKSTSGGTAALGCLVKDYFPEPVTVSWNSGALTSGVHTFPAVLQSSGLYSLSSVVTVPSSSLGTQTYICNVNHKPSNTKVDKKVEPKSCDKTHTCPPCPAPEAAGGPSVFLFPPKPKDTLMISRTPEVTCVVVDVSHEDPEVKFNWYVDGVEVHNAKTKPREEQYNSTYRVVSVLTVLHQDWLNGKEYKCKVSNKALGAPIEKTISKAKGQPREPQVYTLPPSREEMTKNQVSLTCLVKGFYPSDIAVEWESNGQPENNYKTTPPVLDSDGSFFLYSKLTVDKSRWQQGNVFSCSVMHEALHNHYTQKSLSLSPGEPKSSDKTHTPPPPPRTEVQLLESGGGLVQPGGSLRLSCTASGFTFSNYAMSWVRQAPEKGLEWVSSISGSGGSTFYADSVKGRFTISRDNSKNTLYLQMNRLTAEDTAVYYCAKEGSNGTDDYHYDIDVWGQGTTVTVSS
notes: IgG-VH: PR001476 IgG + PR001763 VH, linker H1_15-RT, human IgG1 (L234A, L235A, P329G)

EC50 [1]: 392 pM
Maximum MFI [1]: 34300 MFI
B3: PR002789 (bispecific antibody, human IgG1, kappa, L234A L235A)
light: B2 polypeptide chain 1
heavy: QVQLVESGGGVVQPGRSLRLSCAASGFTFRSFGMHWVRQAPGKGLEWVAVISYDGSNEYYADSVKGRFIISRDNSKDTLYLQMNSLRAGDTAVYYCAKGGGLRWYFAYWGQGTLVTVSSASTKGPSVFPLAPSSKSTSGGTAALGCLVKDYFPEPVTVSWNSGALTSGVHTFPAVLQSSGLYSLSSVVTVPSSSLGTQTYICNVNHKPSNTKVDKKVEPKSCDKTHTCPPCPAPEAAGGPSVFLFPPKPKDTLMISRTPEVTCVVVDVSHEDPEVKFNWYVDGVEVHNAKTKPREEQYNSTYRVVSVLTVLHQDWLNGKEYKCKVSNKALGAPIEKTISKAKGQPREPQVYTLPPSREEMTKNQVSLTCLVKGFYPSDIAVEWESNGQPENNYKTTPPVLDSDGSFFLYSKLTVDKSRWQQGNVFSCSVMHEALHNHYTQKSLSLSPGEPKSSDKTHTPPPPPRTQVQLQQWGAGLLKPSETLSLTCAVYGGSFSGYYWSWIRQPPGKGLEWIGEIQHSGSTDSNPSLKGRVTFSVDTSKNQFSLKLNSVTAADTAVYYCARLTGPFDYWGQGTLVTVSSGGGGSGGGGSGGGGSEIVMTQSPATLSVSPGERATLSCRASQSISSILAWYQQKPGQAPRLLIYGASTRATGIPARFSGSGSGTEFTLTISSLQSEDFAVYYCQQYYNWPLTFGGGTKVEIK
notes: IgG-scFv tetravalent symmetric; PR001476 IgG x PR000448 scFv; IgG1 (L234A, L235A, P329G)

EC50 [1]: 418 pM
Maximum MFI [1]: 30200 MFI
B4: PR002794 (bispecific antibody, human IgG1, kappa, L234A L235A)
polypeptide chain 1: B2 polypeptide chain 1
polypeptide chain 2: QVQLVESGGGVVQPGRSLRLSCAASGFTFRSFGMHWVRQAPGKGLEWVAVISYDGSNEYYADSVKGRFIISRDNSKDTLYLQMNSLRAGDTAVYYCAKGGGLRWYFAYWGQGTLVTVSSASTKGPSVFPLAPSSKSTSGGTAALGCLVKDYFPEPVTVSWNSGALTSGVHTFPAVLQSSGLYSLSSVVTVPSSSLGTQTYICNVNHKPSNTKVDKKVEPKSCDKTHTCPPCPAPEAAGGPSVFLFPPKPKDTLMISRTPEVTCVVVDVSHEDPEVKFNWYVDGVEVHNAKTKPREEQYNSTYRVVSVLTVLHQDWLNGKEYKCKVSNKALGAPIEKTISKAKGQPREPQVYTLPPSREEMTKNQVSLTCLVKGFYPSDIAVEWESNGQPENNYKTTPPVLDSDGSFFLYSKLTVDKSRWQQGNVFSCSVMHEALHNHYTQKSLSLSPGEPKSSDKTHTPPPPPRTEVQLVETGGGLIQPGGSLRLSCAASGFTVSSNYMSWVRQAPGKGLEWVSVIYSDGSTYYADSVKGRFTISRDNSKNTLYLQMNSLRAEDTAVYYCARDRYYGSGNYPTAYYGMDVRGQGTTVTVSS
notes: IgG-VH: PR001476 IgG + PR001767 VH, linker H1_15-RT, human IgG1 (L234A, L235A, P329G)

EC50 [1]: 565 pM
Maximum MFI [1]: 31300 MFI
B5: PR002793 (bispecific antibody, human IgG1, kappa, L234A L235A)
polypeptide chain 1: B2 polypeptide chain 1
polypeptide chain 2: QVQLVESGGGVVQPGRSLRLSCAASGFTFRSFGMHWVRQAPGKGLEWVAVISYDGSNEYYADSVKGRFIISRDNSKDTLYLQMNSLRAGDTAVYYCAKGGGLRWYFAYWGQGTLVTVSSASTKGPSVFPLAPSSKSTSGGTAALGCLVKDYFPEPVTVSWNSGALTSGVHTFPAVLQSSGLYSLSSVVTVPSSSLGTQTYICNVNHKPSNTKVDKKVEPKSCDKTHTCPPCPAPEAAGGPSVFLFPPKPKDTLMISRTPEVTCVVVDVSHEDPEVKFNWYVDGVEVHNAKTKPREEQYNSTYRVVSVLTVLHQDWLNGKEYKCKVSNKALGAPIEKTISKAKGQPREPQVYTLPPSREEMTKNQVSLTCLVKGFYPSDIAVEWESNGQPENNYKTTPPVLDSDGSFFLYSKLTVDKSRWQQGNVFSCSVMHEALHNHYTQKSLSLSPGEPKSSDKTHTPPPPPRTEVQLLESGGGLVQPGGSLRLSCAASGFTFSSYAMSWVRQAPEKGLEWVSAISGGGGSTYYADSVKGRFTISRDNSKNTLYLQMDSLKAEDTAVYYCAKEGTTETDDYHYNMDVWGQGTTVTVSS
notes: IgG-VH: PR001476 IgG + PR001764 VH, linker H1_15-RT, human IgG1 (L234A, L235A, P329G)

EC50 [2]: 717 pM
Maximum MFI [2]: 54600 MFI
B6: PR002790 (bispecific antibody, human IgG1, kappa, L234A L235A)
light: B2 polypeptide chain 1
heavy: QVQLVESGGGVVQPGRSLRLSCAASGFTFRSFGMHWVRQAPGKGLEWVAVISYDGSNEYYADSVKGRFIISRDNSKDTLYLQMNSLRAGDTAVYYCAKGGGLRWYFAYWGQGTLVTVSSASTKGPSVFPLAPSSKSTSGGTAALGCLVKDYFPEPVTVSWNSGALTSGVHTFPAVLQSSGLYSLSSVVTVPSSSLGTQTYICNVNHKPSNTKVDKKVEPKSCDKTHTCPPCPAPEAAGGPSVFLFPPKPKDTLMISRTPEVTCVVVDVSHEDPEVKFNWYVDGVEVHNAKTKPREEQYNSTYRVVSVLTVLHQDWLNGKEYKCKVSNKALGAPIEKTISKAKGQPREPQVYTLPPSREEMTKNQVSLTCLVKGFYPSDIAVEWESNGQPENNYKTTPPVLDSDGSFFLYSKLTVDKSRWQQGNVFSCSVMHEALHNHYTQKSLSLSPGEPKSSDKTHTPPPPPRTEVQLLESGGGLVQLGGSLRLSCAASGFTFSRYAMTWVRQAPEKGLEWVSSISGSGDDTYYGDSVKGRFTISRDNSQNTVYLQMNSLRAEDTAVYFCAKEKAGTTGDYYYNVDVWGQGTTVTVSS
notes: IgG-VH tetravalent symmetric; PR001476 IgG x PR001758 VH; IgG1 (L234A, L235A, P329G)

EC50 [3]: 1290 pM
Maximum MFI [3]: 25200 MFI
B7: PR003338 (bispecific antibody, human IgG1, kappa)
light: B2 polypeptide chain 1 with N92Q
heavy: QVQLVESGGGVVQPGRSLRLSCAASGFTFRSFGMHWVRQAPGKGLEWVAVISYDASNEYYADSVKGRFIISRDNSKDTLYLQMNSLRAGDTAVYYCAKGGGLRWYFAYWGQGTLVTVSSASTKGPSVFPLAPSSKSTSGGTAALGCLVKDYFPEPVTVSWNSGALTSGVHTFPAVLQSSGLYSLSSVVTVPSSSLGTQTYICNVNHKPSNTKVDKKV[letters of human IgG1 Fc with changes not shown]EPKSSDKTHTPPPPPRTEVQLLESGGGLVQPGGSLRLSCAASGFTFSNYAMSWFRQPPETGLKWVSSIDASGGDTYYADSVKGRFTISRDNSKNTLYLQMNSLRAEDTAVYYCAKEGSHGTDDSHYDVDVWGQGTTVTVSS
notes: IgG-VH tetravalent symmetric; PR002408 IgG x PR004469 VH; linker H1_15-RT; IgG1 (L234A, L235A)

EC50 [1]: 644 pM
Maximum MFI [1]: 30100 MFI
B8: PR002795 (bispecific antibody, human IgG1, kappa, L234A L235A)
polypeptide chain 1: B2 polypeptide chain 1
polypeptide chain 2: QVQLVESGGGVVQPGRSLRLSCAASGFTFRSFGMHWVRQAPGKGLEWVAVISYDGSNEYYADSVKGRFIISRDNSKDTLYLQMNSLRAGDTAVYYCAKGGGLRWYFAYWGQGTLVTVSSASTKGPSVFPLAPSSKSTSGGTAALGCLVKDYFPEPVTVSWNSGALTSGVHTFPAVLQSSGLYSLSSVVTVPSSSLGTQTYICNVNHKPSNTKVDKKVEPKSCDKTHTCPPCPAPEAAGGPSVFLFPPKPKDTLMISRTPEVTCVVVDVSHEDPEVKFNWYVDGVEVHNAKTKPREEQYNSTYRVVSVLTVLHQDWLNGKEYKCKVSNKALGAPIEKTISKAKGQPREPQVYTLPPSREEMTKNQVSLTCLVKGFYPSDIAVEWESNGQPENNYKTTPPVLDSDGSFFLYSKLTVDKSRWQQGNVFSCSVMHEALHNHYTQKSLSLSPGEPKSSDKTHTPPPPPRTEVQLLESGGGLVQPGGSLRLSCAASGFTFSNYAMTWVRQAPGKGLEWVSSISGSGDSTYYADSVKGRFTISRDNSKNTLYLQMNSLRAEDTAVYYCAKEGTGTTSDYYYNVDVWGQGTTVTVSS
notes: IgG-VH: PR001476 IgG + PR001768 VH, linker H1_15-RT, human IgG1 (L234A, L235A, P329G)
